From the supplement of paper PMC4166925
± gives the standard deviation of the averaged measurements. Over roughly 33,000 sequences, “E-score (dimensionless, -0.5 to 0.5)” has its median near -0.049; the highest 2% begin near 0.37. This is one part of the list.

test system: T1, PmTbr T-box DNA-binding domain (GST fusion); test: PBM E-score of 8-mer (E-score (dimensionless, -0.5 to 0.5)); Tbr is Tbrain of the sea star Patiria miniata (Pm) or the sea urchin Strongylocentrotus purpuratus (Sp); higher = stronger binding preference; most listed sequences are background and not binding sites; conditions: the construct has about 5 more residues each side
T1 sequence: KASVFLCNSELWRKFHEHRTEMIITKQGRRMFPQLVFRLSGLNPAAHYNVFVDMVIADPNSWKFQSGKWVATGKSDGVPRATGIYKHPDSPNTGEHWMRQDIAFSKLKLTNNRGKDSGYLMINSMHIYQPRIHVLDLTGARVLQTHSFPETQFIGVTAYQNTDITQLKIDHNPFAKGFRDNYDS
Procedure, shortened: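 Expression of GST-fused Tbr T-box DNA-binding domains, each holding the full T-box plus roughly five flanking residues, was carried out in BL21 E. coli at 20 °C, with purification by glutathione affinity chromatography. Universal Agilent arrays made double-stranded by primer extension were incubated with the protein at 200 nM in PBS (pH 7.5), then scanned and quantified. All ungapped 8-mers were scored from probe intensities, and each received an enrichment E-score from the Universal PBM Analysis Suite, averaged over duplicate arrays.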

Sequence	PBM E-score of 8-mer
AAAAGTGT	0.413 ± 0.015
CATTTGGA	-0.0402 ± 0.078
AGAGTTCA	0.0192 ± 0.0048
CGGGGGGA	-0.146 ± 0.0095
GACCCGTC	0.135 ± 0.11
AACATATA	-0.144 ± 0.024
AGGGCTGG	-0.231 ± 0.029
CTAAGTTC	-0.155 ± 0.007
GGAGATCC	-0.228 ± 0.033
AATGTCTA	-0.0762 ± 0.039
TTGCAAAA	0.107 ± 0.0079
CACCGACC	-0.0662 ± 0.0026
AATGTTAA	-0.0297 ± 0.11
ACTGCGAT	0.107 ± 0.048
AGACCGCA	-0.254 ± 0.031
CAAGCAAG	0.0511 ± 0.028
AGCTCCAA	-0.174 ± 0.0019
GGCCTCGA	-0.258 ± 0.11
CCTGGCAA	0.0402 ± 0.0016
GTCACTAA	0.2958 ± 0.00092
ATTACCGC	-0.067 ± 0.032
TCAAGGGA	-0.159 ± 0.15
AGGCGCGA	0.463 ± 0.0056
GCTTCCCC	-0.155 ± 0.054
ATCAACCC	-0.12 ± 0.079

Sequence	PBM E-score of 8-mer
AAGGGTGC	0.301 ± 0.047
TAGTCTCA	0.093 ± 0.063
ACCCCACA	0.265 ± 0.016
CATTTCCG	-0.0507 ± 0.037
ACCCAGAG	-0.0469 ± 0.037
CTACGACA	0.0921 ± 0.12
CCCGCCAG	0.117 ± 0.083
CAAAAAGA	-0.206 ± 0.063
CGTTAGGC	0.0768 ± 0.046
AACCTACT	-0.221 ± 0.044
CTCGGAGC	-0.113 ± 0.037
AATAAGCG	0.152 ± 0.028
CCCGTAGC	0.0376 ± 0.019
CTACACAC	0.129 ± 0.041
AATTCACA	0.2798 ± 0.0014
CAACGTTA	0.0492 ± 0.009
GACGGGGC	-0.174 ± 0.08
CGAAGTGC	0.253 ± 0.02
GTATTCCA	-0.108 ± 0.051
TTACTAAA	-0.175 ± 0.043
CCTAGGCG	0.0867 ± 0.043
GTCAGAAA	0.00026 ± 0.08
ACACAACC	0.142 ± 0.038
CATGATTC	-0.188 ± 0.014
GGCAAGTA	0.0544 ± 0.096

Sequence	PBM E-score of 8-mer
AATAAAAC	0.0319 ± 0.12
ATAATGGA	-0.0613 ± 0.033
CGTGCAGC	0.0118 ± 0.029
ACCCATTC	-0.0983 ± 0.0046
GGGGGCCA	-0.0934 ± 0.068
ATTACTAA	-0.195 ± 0.053
ACATGCTG	0.011 ± 0.053
ATACTATG	-0.17 ± 0.068
CCTTAACG	0.00703 ± 0.089
CACCACCA	0.201 ± 0.034
AAATGCGG	-0.0504 ± 0.077
GTTTGAAA	-0.148 ± 0.037
ACAATGTG	0.297 ± 0.0039
GCCACATA	0.175 ± 0.04
CGCTTACC	0.0245 ± 0.057
ACATGCGT	0.0464 ± 0.05
CGACGGAC	0.0197 ± 0.024
CCATTGGA	-0.0722 ± 0.069
GATGTGTA	0.289 ± 0.02
CATTTCGC	0.207 ± 0.041
ATCAAGCG	0.0692 ± 0.061
CTTTGCGC	0.169 ± 0.0022
AAAATGAA	-0.0303 ± 0.11
GCGCATTA	-0.196 ± 0.0095
AGATCTTA	-0.171 ± 0.089

Sequence	PBM E-score of 8-mer
GTTACTCA	-0.0389 ± 0.019
CTTGCGCA	0.135 ± 0.026
CGTGATGC	0.0694 ± 0.034
CGGGATGC	-0.249 ± 0.11
CCGACGGC	-0.102 ± 0.024
CGTGTCAA	0.4335 ± 0.00096
CAGTCCCG	-0.0959 ± 0.0045
GCGATTAA	0.152 ± 0.012
AGTAGCTG	-0.0721 ± 0.044
AACTATAT	-0.0551 ± 0.028
GAGGCGTA	0.102 ± 0.02
CGTGCTAG	0.287 ± 0.027
ATCATCTG	-0.122 ± 0.038
AAGATTTC	0.0187 ± 0.071
ACCATTTG	-0.0848 ± 0.00096
TCAGACCA	-0.135 ± 0.036
AGCTTGAA	-0.15 ± 0.03
GAACTAAA	-0.164 ± 0.022
CCTTATGA	0.217 ± 0.028
CCTTTCAG	-0.111 ± 0.061
GGAGCGCA	-0.109 ± 0.017
CAAGTTAC	0.0103 ± 0.025
ATTTTACC	-0.176 ± 0.075
CGCTTCCA	0.0715 ± 0.03
GTTTGGAA	-0.141 ± 0.026

Sequence	PBM E-score of 8-mer
ATAGGCGG	-0.0787 ± 0.0033
GGACAGAC	-0.068 ± 0.043
CGCGACAC	0.375 ± 0.02
AGTGCGTA	0.146 ± 0.048
GAAGGATC	-0.0766 ± 0.026
ACCACGTA	0.00427 ± 0.056
CGAGGAAG	-0.107 ± 0.092
CGTGAGCA	0.0168 ± 0.032
CAATACCG	-0.277 ± 0.1
ACTTCTCA	0.176 ± 0.003
GACAGTGC	0.111 ± 0.044
ATTATTTC	0.117 ± 0.032
AGGCCGTG	0.0805 ± 0.0058
AAGTAATT	-0.163 ± 0.092
CACAACGC	0.112 ± 0.0016
CCTCCCAG	0.0865 ± 0.021
GAATGCGA	0.0797 ± 0.0074
AGTAGCTA	0.0372 ± 0.007
CTATCCAG	-0.215 ± 0.0065
GTTTCGGA	-0.152 ± 0.0021
GGTAGCAC	0.327 ± 0.013
AGCATACA	0.0856 ± 0.029
CTCAAGCC	-0.0914 ± 0.048
CGGTGGAG	-0.127 ± 0.0071
GAGAGAGC	0.00499 ± 0.031

Sequence	PBM E-score of 8-mer
CGGCCGAA	-0.153 ± 0.0055
AGCCTTAT	0.0216 ± 0.083
GGGATCAA	-0.161 ± 0.024
GACGGACA	0.0362 ± 0.0049
ATTGTCTC	-0.0898 ± 0.011
CGCCATGA	0.0544 ± 0.021
TACTGTAA	-0.115 ± 0.024
TGAAACCA	-0.0657 ± 0.047
CAACTCGA	0.0441 ± 0.09
AGTAGGCG	0.0665 ± 0.043
CTATAGTA	-0.246 ± 0.039
ACGACTGA	-0.196 ± 0.0029
ATTTCAAA	-0.205 ± 0.028
GGTGGGAA	0.339 ± 0.038
CCTCCGCC	0.00324 ± 0.031
CACGCGCA	0.075 ± 0.061
AATAGCTG	0.0454 ± 0.085
CGAGATGC	0.0132 ± 0.073
ATCCTTGA	-0.247 ± 0.034
AATTTCCG	-0.246 ± 0.06
ATATCAGG	-0.106 ± 0.053
GGGACCCA	-0.119 ± 0.098
ACCCTCAA	0.0906 ± 0.052
AGACGTGA	0.233 ± 0.043
AACTGAGC	-0.298 ± 0.092

Sequence	PBM E-score of 8-mer
CCGATAGG	0.00046 ± 0.056
CGTCATGC	-0.0192 ± 0.0039
ATCAATGG	-0.112 ± 0.042
AGACATGG	-0.316 ± 0.022
GTTTGTGA	0.033 ± 0.03
AGGAGAAT	-0.218 ± 0.014
AGTTGATC	-0.041 ± 0.049
ACTGCCAA	0.0668 ± 0.0018
AGAATATC	-0.102 ± 0.0082
ACGAACGA	-0.0282 ± 0.085
AAGGTCTC	-0.157 ± 0.02
TTCGCAAA	0.175 ± 0.027
AACCCCTG	-0.0695 ± 0.0011
GCAACGAA	-0.0712 ± 0.091
ATCTAAAC	-0.0413 ± 0.056
AATTGATG	-0.146 ± 0.18
ATGACGTC	-0.0322 ± 0.024
AACAGGTT	0.238 ± 0.023
AGTTCATG	0.0943 ± 0.0081
CAATCAGC	0.0229 ± 0.0086
CATGCGCC	-0.167 ± 0.023
CCCAGCGC	-0.0201 ± 0.0062
